PubChem BioAssay AID463173 (ICCB-Longwood Screening Facility, Harvard Medical School, 2010)
About 1,700 (3.3%) of roughly 52,000 compounds were called active. Rule as the data show it: active = survival mostly below about 52% (no sharp cut-off); inactive = mostly above about 56%. This is one part of the list.

The compounds below were run on Wild type (assay: S. aureus survival, RN4220 and DeltatarO strains – OD600, teichoic acid synthesis inhibitors, primary screen (AID 463173)). Conditions: S. aureus RN4220 wild type/DeltatarO growth, OD600, 18 h, hits give low values, screened at 18.75 µg/mL (by protocol).

| SMILES | survival |
| --- | --- |
| O=C(Cn1c(=O)n(Cc2nc(-c3ccccc3)no2)c(=O)c2ccccc21)Nc1cccc(C(F)(F)F)c1 | inactive: 89% |
| Cc1c(Cl)cccc1NC(=O)CC1Oc2ccccc2NC1=O (stereo not drawn) | inactive: 89% |
| CCOc1ccccc1C(=O)N(Cc1ccco1)Cc1ccco1 | inactive: 83% |
| CC1C(=O)Nc2ccc(S(=O)(=O)N3CCCCC3)cc2NC1=O (stereo not drawn) | inactive: 87% |
| CCC(CC)C(=O)OCc1cc(=O)n2nc(C3CC3)sc2n1 | inactive: 83% |
| CC1=C(c2ccc(Cl)cc2)S(=O)(=O)NC1=NCCCN1CCN(c2cc(C)ccc2C)CC1 | inactive: 69% |
| O=C(CCCn1c(=O)c2cccn2c2ccccc21)Nc1cc(C(F)(F)F)ccc1Cl | inactive: 80% |
| Cn1cc(-c2cc3n(n2)CCC(=O)N3CCCC(=O)NCc2ccc(Cl)cc2)c2ccccc21 | inactive: 124% |
| CC(C(=O)Nc1ccccc1C(=O)N1CCCC1)n1nnc2ccccc21 (stereo not drawn) | inactive: 127% |
| CCOc1ccccc1NC(=O)CN1C(=O)COc2ccc(S(=O)(=O)N3CCOCC3)cc21 | inactive: 98% |
| CC(C)C(OC(=O)c1cc2occc2n1C(C)C)C(=O)NCC1CCCO1 (stereo not drawn) | inactive: 123% |
| CCOc1ccc(NCc2cccn2-c2nnc(N3CCC(C(=O)NCC(C)c4ccccc4)CC3)s2)cc1 (stereo not drawn) | inactive: 80% |
| COc1ccc(Cn2c(CCC(=O)Nc3cc(OC)c(OC)c(OC)c3)nc3cccnc32)cc1 | inactive: 132% |
| O=C(CSc1nccn1Cc1ccccc1)NCc1ccco1 | inactive: 99% |
| Cc1cc(C)n(C(C)CC(=O)Nc2cccc(C(F)(F)F)c2)n1 (stereo not drawn) | inactive: 72% |
| CCN(CC)c1ccc(NC(=O)C2CCN(c3nnc(-n4cccc4)s3)CC2)c(C)c1 | inactive: 65% |
| CCN(c1ccccc1)S(=O)(=O)c1ccc(NC(=O)c2nc(SC)ncc2Cl)cc1 | inactive: 88% |
| CC(C)(C)OC(=O)N1CCC(c2c(C(=O)NCc3cccc(Cl)c3)cnn2-c2ccc(F)cc2)CC1 | inactive: 78% |
| CCOc1ccc(CN2CCc3nc(N4CCN(c5ccccc5OC)CC4)ncc3C2)cc1OC | inactive: 111% |
| O=C(Nc1cc(-c2nc3ccccc3o2)ccc1Cl)c1sc2c([N+](=O)[O-])cccc2c1Cl | inactive: 96% |
| COc1cc(/C=C(\C#N)C(=O)NCC2CCCO2)ccc1O (stereo not drawn) | inactive: 94% |
| CCc1ccccc1NC(=O)CSc1nc(-c2cccc(Cl)c2)nc2c1Cc1c(CO)cnc(C)c1O2 | inactive: 83% |

| SMILES | survival |
| --- | --- |
| CCN1CCCC1CNC(=O)Nc1c[nH]c2ccc(OC)cc2c1=O (stereo not drawn) | inactive: 107% |
| CC1CCN(C(=O)Cn2c(=O)n(CC3CCC(C(=O)NC(C)C)CC3)c(=O)c3sccc32)CC1 (stereo not drawn) | inactive: 78% |
| CCOC(=O)c1ccc(NC(=O)CC2C(=O)N(c3ccc(F)cc3)C(=O)N2Cc2cccnc2)cc1 (stereo not drawn) | inactive: 69% |
| O=C(NCCCN1CCCCC1)c1sc2ncccc2c1-n1cccc1 | inactive: 90% |
| Cc1ccccc1C(=O)Nc1nnc(S(=O)(=O)N(C)Cc2ccccc2)s1 | inactive: 89% |
| COc1ccc(-n2c(-c3ccc(C)cc3)cc3c2CC(C)(C)CC3=O)cc1Cl | inactive: 85% |
| Cc1[nH]c(=O)[nH]c(=O)c1N | inactive: 100% |
| COc1ccc(-c2nc(SCC(=O)NC3CCCC3)c(-c3ccc(F)cc3)[nH]2)cc1 | inactive: 76% |
| CC(C)c1ccc(Cn2c(COc3ccccc3)nc3ccccc32)cc1 | active: -1% |
| CCn1nc(C)c2c(-c3ccccc3)cc(=O)n(C(C)C(=O)NCCC(C)C)c21 (stereo not drawn) | inactive: 71% |
| COc1ccc(S(=O)(=O)NCC(c2ccco2)S(=O)(=O)c2ccc(C)cc2)cc1F (stereo not drawn) | inactive: 78% |
| NC(=Nc1ccccc1)SC1CC(=O)N(c2ccccc2)C1=O (stereo not drawn) | inactive: 113% |
| COc1ccc(CNS(=O)(=O)c2ccc(N3CCCCS3(=O)=O)cc2)cc1 | inactive: 83% |
| Cc1ccc(C(=O)Nc2ccc3c(c2)n(C)c(=O)c(=O)n3C)cc1 | inactive: 78% |
| CCc1ccc(OC(C)C(=O)N2CCC(c3nc4ccccc4o3)CC2)cc1 (stereo not drawn) | inactive: 92% |
| Cc1ccc(NC(=O)Cn2nc(C(=O)Nc3ccc(C)cc3)ccc2=O)cc1 | inactive: 64% |
| CC1CCN(Cc2c(O)ccc3c(=O)c(Oc4ccccc4Cl)c(C(F)(F)F)oc23)CC1 | inactive: 75% |
| Cc1cc(C)nc(SCc2noc(-c3ccc(Cl)cc3)n2)n1 | inactive: 111% |
| CC(=O)Nc1ccc(NC(=O)CCc2nc3cccnc3n2Cc2cccs2)cc1 | inactive: 137% |
| COc1ccc(NC(=O)CC2C(=O)N(c3cccc(OC)c3)C(=O)N2CCc2cccs2)cc1 (stereo not drawn) | inactive: 79% |
| Cc1ccc(NC(=O)Cn2c(=O)n(Cc3nc(-c4ccccc4)no3)c(=O)c3cc4c(cc32)OCO4)cc1F | inactive: 89% |
| O=C(COc1ccccc1F)Nc1ccc2nc(SCCOc3ccccc3)sc2c1 | inactive: 92% |

| SMILES | survival |
| --- | --- |
| CCCOc1ccc(C(=O)Nc2ccc3oc(-c4ccncc4)nc3c2)cc1 | inactive: 67% |
| O=C(Nc1nnc(N2CCCCCC2)s1)Nc1cc(F)ccc1F | inactive: 109% |
| CCOc1ccc(CCNC(=O)C2CCN(C(=O)N3CC(CC)Oc4ccccc43)CC2)cc1 (stereo not drawn) | inactive: 91% |
| CCCCN(CC)CCCNC(=O)CS(=O)(=O)Cc1nc(-c2ccc(C)cc2)oc1C | inactive: 92% |
| COc1ccc(NC(c2nnc(-c3ccccc3)o2)c2ccccc2F)cc1Cl (stereo not drawn) | inactive: 65% |
| COc1cc(NC(=O)CSc2nnc(C)n3c2cc2oc(C)cc23)cc(OC)c1 | inactive: 65% |
| Cc1ccccc1-c1noc(-c2ccc(N3CCCCC3)c([N+](=O)[O-])c2)n1 | inactive: 124% |
| O=C(NCc1ccc(Cl)cc1)c1cnc2sc(N3CCOCC3)nn2c1=O | inactive: 64% |
| CCOCCCN(Cc1ccco1)S(=O)(=O)c1cc2c(cc1Cl)NC(=O)CO2 | inactive: 68% |
| Cc1c2cnn(CC(=O)NCc3ccc(F)cc3)c(=O)c2c(C)n1Cc1cccc(Cl)c1 | inactive: 94% |
| COCCCNC(=O)c1c(NC(=O)Cc2coc3c(C)c(C)ccc23)sc2c1CCCC2 | inactive: 87% |
| COc1cccc(CNC(=O)CCS(=O)(=O)c2ccc3c(c2)oc(=O)n3C)c1 | inactive: 59% |
| COCCN(Cc1cccs1)S(=O)(=O)c1cc(-c2cc(C)no2)ccc1C | inactive: 131% |
| Cn1nnc2c(N3CCN(c4cccc(Cl)c4)CC3)ncnc21 | inactive: 73% |
| CCCc1cc(NCCc2ccc(OC)cc2)n2ncnc2n1 | inactive: 106% |
| CCC(Sc1nnc2c(n1)[nH]c1ccccc12)C(=O)Nc1nnc(C(C)C)s1 (stereo not drawn) | inactive: 89% |
| COC(=O)C1C(C(C)C)N(c2ccccc2)OC1(C)O (stereo not drawn) | inactive: 106% |
| CCCCOC(=O)c1c(N)n(-c2ccc(OC)cc2OC)c2nc3ccccc3nc12 | inactive: 86% |
| Cc1ccc(CCNS(=O)(=O)c2cc(-c3cc(C)no3)ccc2C)cc1 | inactive: 72% |
| Cc1cccc(-n2ncc(C(=O)N3CCOCC3)c2C2CCN(C(=O)OC(C)(C)C)CC2)c1 | inactive: 89% |
| CC(C)N(C(=O)Cn1cc(SCC(=O)Nc2ccccc2F)c2ccccc21)C(C)C | inactive: 86% |
| CCOc1ccc(C(=O)NCc2ccc3c(c2)CCN3C(=O)c2ccc(Cl)cc2)cc1 | inactive: 81% |

| SMILES | survival |
| --- | --- |
| O=C(NC1CC(=O)N(c2cccc(F)c2)C1)c1cccs1 (stereo not drawn) | inactive: 77% |
| Cc1c(Cl)cccc1NC(=O)N1CCN(C(=O)c2nsc3ccccc23)CC1 | inactive: 133% |
| Cc1ccccc1Nc1cc(C(=O)NCCCN2CCN(c3cccc(Cl)c3)CC2)c2ccccc2n1 | inactive: 63% |
| CC(C)C(=O)Nc1ccc2nc(SCC(=O)N3CCCC3)sc2c1 | inactive: 87% |
| CCCN(C(=O)c1cc2c(=O)oc3ccccc3c2s1)c1ccc(CC)cc1 | inactive: 69% |
| CCc1ccc(OCC(=O)NC(Cc2c[nH]c3ccccc23)C(=O)O)cc1 (stereo not drawn) | inactive: 62% |
| Cc1c(CCC(=O)NCCc2ccccc2)c(=O)oc2c(C)c(O)ccc12 | inactive: 90% |
| CCc1ccc(NC(=O)c2ccc(CN3CC(=O)N4CCCCC4C3=O)cc2)cc1 (stereo not drawn) | inactive: 87% |
| Cc1ccc(C(C)C)c(OCCSc2nc(-c3ccccc3F)nc3cc(=O)[nH]n23)c1 | inactive: 82% |
| Cc1ccc(Cn2c(C(=O)O)c(CNCc3ccc(OC(C)C)cc3)c3ccc(C)cc32)cc1 | inactive: 22% |
| CC(=O)OCC1OC(n2ccc3ccccc32)C(OC(C)=O)C(OC(C)=O)C1OC(C)=O (stereo not drawn) | inactive: 105% |
| COc1ccc(OC)c(NC(=O)CSc2ccc(-c3cccs3)nn2)c1 | inactive: 88% |
| COc1cc(OC)c(NC(=O)C2CCN(S(=O)(=O)c3c(C)noc3/C=C/c3c(C)cc(C)cc3C)CC2)cc1Cl | inactive: 70% |
| COc1cccc(CNC(=O)c2cc(C)nc3c2c(C)nn3-c2ccc(C)cc2)c1 | inactive: 81% |
| COc1cccc(-n2c(=O)c3c(C)c(C)sc3n(CC(=O)NCCc3ccc(OC)c(OC)c3)c2=O)c1 | inactive: 89% |
| COc1cccc(OCc2nc3ccccc3n2CCOc2ccc(C)cc2)c1 | inactive: 62% |
| CN(Cc1ccccc1)C(=O)c1cn(C)c2ccc(S(=O)(=O)N3CCCCC3)cc2c1=O | inactive: 79% |
| Cn1c(=O)oc2cc(S(=O)(=O)NC(Cc3ccccc3)C(=O)Nc3ccc(F)cc3)ccc21 (stereo not drawn) | inactive: 79% |
| CCOC(=O)c1c(NC(=O)C(C)Sc2cn(CCNC(=O)c3c(F)cccc3F)c3ccccc23)sc2c1CCC2 (stereo not drawn) | inactive: 85% |
| CCn1c(C(=O)NCc2ccc(F)cc2)cc2oc3ccccc3c21 | inactive: 115% |
| CC12CN3CC(c4ccccc4)(CN(C1)C3c1ccc(O)cc1)C2=O (stereo not drawn) | inactive: 60% |
| COc1ccc(OC)c(NS(=O)(=O)c2cc3c(cc2Cl)N(C(C)=O)CCO3)c1 | inactive: 88% |
